# Source: the supplement of paper PMC11880418
# Structures can show the parent of a compound that is named as a salt. This is one part of the list. The data scatter; read single values as rough.
# How the values were obtained:
# Assay in all cases: ALDHbr (CSC) cell proportion score relative to DMSO vehicle (ratio to DMSO); breast (SUM159) / gastric (MKN45) / pancreatic (PANC1) / colon cancer lines; ALDHbr cells have high ALDH activity and are rich in cancer stem cells (CSC); higher = more CSC (ALDHbr) cells remaining
# Details in all cases: 10 µM; 72 h
# MKN45 = system: MKN45
# PANC1 = system: PANC1
# SUM159 = system: SUM159
# T84 = system: T84
# 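Note: High-content imaging of ALDEFLUOR-stained cells with Hoechst-labelled nuclei in 384-well plates, triplicate wells, scored as Z-score against 0.1% DMSO vehicle, negative meaning fewer ALDHbr cells.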
SMILES,ALDHbr (MKN45),ALDHbr (PANC1),ALDHbr (SUM159),ALDHbr (T84)
C[C@]12CCC(=O)C=C1C=C[C@@H]1[C@@H]2CC[C@@]2(C)[C@H]1CC[C@@]2(O)CCC(=O)O [Canrenoic acid potassium salt],0.854,0.872,1.15,0.959
CCC(COC(=O)c1cc(OC)c(OC)c(OC)c1)(c1ccccc1)N(C)C (stereo not given) [Trimebutine],0.758,0.985,0.684,1
CN1C(=O)CCS(=O)(=O)C1c1ccc(Cl)cc1 (stereo not given) [Chlormezanone],0.978,0.945,1.22,0.934
c1ccc2c(c1)Nc1ccccc1S2 [Phenothiazine],0.974,0.999,1.35,0.884
CC(=O)OC1CN2CCC1CC2 (stereo not given) [Aceclidine Hydrochloride],1.07,1.04,1.46,1.15
CC(=O)NC1CCSC1=O (racemic) [N-Acetyl-DL-homocysteine Thiolactone],1.02,0.852,1.22,0.995
O=C1CC[C@@]2(O)[C@H]3Cc4ccc(O)c5c4[C@@]2(CCN3CC2CC2)[C@H]1O5 [Naltrexone hydrochloride dihydrate],0.935,0.941,1.11,0.981
CCOC(=O)c1cncn1[C@H](C)c1ccccc1 [Etomidate],1.11,0.94,1.26,1.15
C[N+]1(C)[C@@H]2CC[C@H]1C[C@@H](OC(=O)C(CO)c1ccccc1)C2 (stereo not given in full) [Methylatropine nitrate],1.04,1.02,0.981,0.962
CN1[C@@H]2CC[C@H]1C[C@@H](OC1c3ccccc3CCc3ccccc31)C2 [Deptropine citrate],0.971,1.16,0.877,0.268
